PubChem BioAssay AID624417 (National Center for Advancing Translational Sciences (NCATS), 2012)
In all, about 410,000 compounds went through this assay and about 6,400 (1.6%) were called active. The shares of active, inactive and inconclusive entries below differ from those in the screen. The call rests on the fitted dose curve; in most records, active means well fitted inhibition curve with a large enough effect; inconclusive means small, poorly fitted or top-dose-only effect; inactive means no such curve, though single readings can be large or run the other way. Potencies of inconclusive entries are left out as doubtful fits.

Target: Glucagon-like peptide 1 receptor (Homo sapiens) (UniProt P43220)
Sequence of UniProt P43220 (P43220 whole entry, looked up): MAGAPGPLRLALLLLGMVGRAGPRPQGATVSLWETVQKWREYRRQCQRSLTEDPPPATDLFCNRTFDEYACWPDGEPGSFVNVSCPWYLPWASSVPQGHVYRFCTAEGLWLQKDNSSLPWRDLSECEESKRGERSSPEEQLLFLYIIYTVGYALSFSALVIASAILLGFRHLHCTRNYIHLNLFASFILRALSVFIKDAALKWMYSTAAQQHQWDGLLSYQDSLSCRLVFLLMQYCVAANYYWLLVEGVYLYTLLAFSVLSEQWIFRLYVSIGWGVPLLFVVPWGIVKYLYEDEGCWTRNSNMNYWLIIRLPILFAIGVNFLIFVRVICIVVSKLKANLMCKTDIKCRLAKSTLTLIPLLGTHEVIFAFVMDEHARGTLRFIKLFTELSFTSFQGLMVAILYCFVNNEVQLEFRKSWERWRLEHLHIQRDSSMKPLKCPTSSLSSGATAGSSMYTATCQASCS
Experiment: qHTS of GLP-1 Receptor Inverse Agonists (Inhibition Mode); further: nearly all actives have a fitted effect of over 55% in size
Conditions: HEK293 GLP-1R CRE-luciferase, luminescence, 24 h, GLP-1R form is constitutively active; series mostly up to 38.3 µM
How it was run: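 Readout was luciferase luminescence, measured 12 min after detection reagent at room temperature. Beforehand, GLP-1R reporter HEK293 cells had sat 12 h, then received compounds for 24 hr at 37 deg C.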
Potency means the concentration at half of the fitted maximal effect; tags describe the fitted curve by direction and shape.

Compound | Potency
Clc1ccc(-c2noc(CN(Cc3ccccn3)CC3CCCO3)n2)cc1 (configuration not stated) | inconclusive [inhibitor, single point]
Cc1ccc(NC(=O)C2Cc3ccccc3N2C(=O)c2ccccc2)cc1Cl (configuration not stated) | inactive
O=C(COc1ccc(Cl)cc1Br)Nc1cccc(S(=O)(=O)N2CCCC2)c1 | inconclusive [inhibitor, single point]
COc1ccc2[nH]c3c(c2c1)CCN1C(=O)N([C@@H](C)C(=O)NC2CCCCC2C)C(=O)[C@]31C (some centres not stated) | inconclusive [inhibitor, single point]
O=[N+]([O-])c1ccccc1/C=C/C=N/n1c(-c2ccccc2F)n[nH]c1=S | inactive
COc1ccc(Oc2ccc(NC(=O)c3ccccc3C)cc2)cc1 | inconclusive [inhibitor, full curve]
Cc1ccc(-n2ncc3c2ncn2nc(-c4ccco4)nc32)c(C)c1 | inactive
O=C(c1ccncc1)N1CCN(C2CCC(c3ccccc3)CC2)CC1 (configuration not stated) | inconclusive [inhibitor, partial curve]
Cc1cc(C)c(OCC(=O)N(Cc2ccccc2)C2CCS(=O)(=O)C2)c(C)c1 (configuration not stated) | inconclusive [inhibitor, single point]
Cc1ccccc1NCC(=O)N/N=C\c1ccc2c(c1)OCO2 | inconclusive [inhibitor, single point]
COc1ccc(CC(=O)O/N=C(\N)Cc2cccc3ccccc23)cc1OC | inconclusive [inhibitor, single point]
O=C(CSCc1ccc(Cl)cc1)Nc1nccs1 | inconclusive [inhibitor, partial curve, poor fit]
CCOc1ccc(-c2cn(-c3ccc(OC)cc3)c(SCC(=O)Nc3ccccc3Cl)n2)cc1 | inactive
COc1ccc(F)cc1S(=O)(=O)NCCc1csc(-c2ccc(Cl)cc2)n1 | inconclusive [inhibitor, single point]
CC1CCCCN1CCNC(=O)C1CCCN(c2ncnc3c2nc2n3CCCCC2)C1 (configuration not stated) | inconclusive [inhibitor, full curve, poor fit]
CC(=O)c1ccc(NC(=O)CSc2cn(CC(=O)N3CCCCC3)c3ccccc23)cc1 | inactive
OCC1(Cc2ccc(Cl)cc2)CCN(Cc2ccc3nsnc3c2)CC1 | inconclusive [inhibitor, single point]
NC(=O)CC(NC(=O)c1ccc(Br)cc1)c1ccc(N2CCN(c3ccccc3)CC2)c([N+](=O)[O-])c1 (configuration not stated) | inconclusive [inhibitor, partial curve, poor fit]
C/C(=N\NC(=S)NCCc1ccccc1)c1ccc(Cl)cc1Cl | inconclusive [inhibitor, partial curve, poor fit]
O=C(O)c1cccc(-c2nnn(Cc3ccccc3Cl)n2)c1 | inconclusive [inhibitor, partial curve, poor fit]
C=CCNc1nc(-c2sc(NC(=O)C(C)(C)C)nc2C)c(-n2cc(-c3ccccc3)nn2)s1 | inconclusive [inhibitor, single point]

Compound | Potency
COc1ccc(Br)c2c1-c1nc(NC(=O)c3cccc(C)c3)sc1C2 | inactive
C[C@@]12C(=O)Nc3cc(Cl)ccc3C(=O)N1[C@H]1c3cc(Cl)ccc3OC[C@@H]1[C@@H]2c1ccccc1 | inconclusive [inhibitor, partial curve, poor fit]
Cc1ccc(NNC(=O)c2c(F)cccc2Cl)cc1C | inconclusive [inhibitor, full curve, poor fit]
C/C(CC(=O)NC(C)(C)C)=N\NC(N)=S | inconclusive [inhibitor, full curve, poor fit]
CCCCc1n[nH]c(=S)n1Cc1ccccc1 | inconclusive [inhibitor, single point]
CC(C)OC(=O)c1cc2c(ccn2C)n1CC(=O)N(Cc1ccccc1)c1ccccc1 | inconclusive [inhibitor, partial curve, poor fit]
Cc1cccc(C)c1OCC(=O)Nc1oc(-c2ccccc2)c(-c2ccccc2)c1C#N | active: 10 µM
c1ccc(-c2cn(-c3ccccc3)c3ncnc(N4CCN(c5ccccc5)CC4)c23)cc1 | inactive
CCOC(=O)c1c(C)[nH]c(C2=NNC(=Nc3ccc(OCC)cc3)SC2)c1C | inconclusive [inhibitor, single point]
CCOC(=O)CC(NC(=O)c1cc2cc(Cl)ccc2oc1=O)c1ccc(C)cc1 (configuration not stated) | inactive
COc1ccccc1N1CCN(c2ccc3cc(S(=O)(=O)N4CCCCC4)ccc3n2)CC1 | inconclusive [inhibitor, partial curve, poor fit]
Cc1cccc(C)c1NC(=O)c1nc(S(=O)(=O)Cc2ccccc2)ncc1Cl | inconclusive [inhibitor, single point]
COC(=O)C1=CN(c2ccc3c(c2)OCO3)C(N)=C(C#N)C1c1ccccc1 (configuration not stated) | inconclusive [inhibitor, full curve, poor fit]
O=C(NC1CCCC1)C(c1ccsc1)N(Cc1ccco1)C(=O)Cc1cccs1 (configuration not stated) | inconclusive [inhibitor, partial curve, poor fit]
O=C1OC(c2ccc(Cl)cc2)=N/C1=C\C=C\c1ccco1 | inactive
CCCCOC(=O)N1CCOCCOCCN(C(=O)OCCCC)CCOCCOCC1 | inconclusive [inhibitor, single point]
COc1ccccc1CCn1cnc(Cc2cccc(F)c2)c1C(C)C | inconclusive [inhibitor, single point]
CC1(OC(=O)CCc2ccccc2)C(=O)C=C2C=C(c3ccc(C#N)cc3)N(C3CCCCC3)C=C2C1=O (configuration not stated) | inconclusive [inhibitor, partial curve, poor fit]
O=C(CCCN1C(=O)/C(=C\c2ccccc2)SC1=S)Nc1ccc(O)cc1C(=O)O | inactive
C[C@@H](C(=O)Nc1ccc2ccccc2c1)[C@@H]1C[C@@]1(C)[C@@H](NC(=O)OCc1ccccc1)c1ccccc1 | inconclusive [inhibitor, single point]
Cc1nnsc1S(=O)c1ccc(Cl)c(Cl)c1 (configuration not stated) | inconclusive [inhibitor, single point]

Compound | Potency
COc1cccc(CNC(=O)CS(=O)(=O)Cc2nc(-c3ccc(C)cc3)oc2C)c1OC | inconclusive [inhibitor, single point]
CCCCc1nc2ccccc2c(NC(=O)CNC(C)(C)C)c1CCC | inconclusive [inhibitor, partial curve, poor fit]
Cn1ncc(Br)c1NC(=O)Nc1ccc(OC(F)(F)F)cc1 | inconclusive [inhibitor, single point]
Cc1[nH]c2ccccc2c1C(=O)/C=C/c1ccccc1Cl | inconclusive [inhibitor, single point]
CCN1CCN(c2ccc(NC(=O)c3cccnc3)cc2Cl)CC1 | inconclusive [inhibitor, partial curve, poor fit]
CCOc1nc(C)cc(C)c1S(=O)(=O)c1cccc(Cl)c1 | inconclusive [inhibitor, partial curve, poor fit]
CCC(CC)C(=O)Nc1c(C(=O)N2CCN(c3ccccc3F)CC2)oc2ccccc12 | inconclusive [inhibitor, single point]
Cc1ccc(C)c(Cn2c3ccccc3c3cnn(CC(=O)NCCCN4CCOCC4)c(=O)c32)c1 | inconclusive [inhibitor, single point]
CCOC(=O)c1c(C)[nH]c(C(=O)OC(C)C(=O)Nc2ccccc2OC)c1C (configuration not stated) | inconclusive [inhibitor, single point]
CCOc1cc(C(=O)Nc2ccc(S(=O)(=O)NC3=NCCCCC3)cc2)cc(Br)c1OC | inconclusive [inhibitor, single point]
COc1cc(OC)cc(C(=O)OC(C)C(=O)NC2CCCc3ccccc32)c1 (configuration not stated) | inconclusive [inhibitor, single point]
COC(=O)c1c(-c2cccs2)csc1NC(=O)CN1CCOCC1 | inconclusive [inhibitor, single point]
COc1ccc(N2CCN(CCCNC(=O)Nc3ccccc3Cl)CC2)cc1 | inactive
O=[N+]([O-])c1cc([N+](=O)[O-])c2oc(-c3ccccc3)c(Br)c2c1O | inconclusive [inhibitor, partial curve, poor fit]
Cc1ccc(-c2nc3ccc([N+](=O)[O-])cc3[nH]2)cc1 | inconclusive [inhibitor, partial curve, poor fit]
Cc1cc(F)ccc1C(O)c1ncc(-c2cccc3ccccc23)[nH]1 (configuration not stated) | inconclusive [inhibitor, single point]
CCCCN1C2=NC(c3ccccc3)CN2c2ccccc21 (configuration not stated) | inconclusive [inhibitor, single point]
COc1cccc(C(=O)N2N=C(c3ccccn3)CC2(O)C(F)(F)F)c1 (configuration not stated) | inconclusive [inhibitor, partial curve, poor fit]
OC(CN1CCN(Cc2ccc3c(c2)OCO3)CC1)c1c[nH]c2ccccc12 (configuration not stated) | inconclusive [inhibitor, partial curve, poor fit]
CCC(Oc1ccccc1)C(=O)Nc1ccccc1C(=O)N1CCCCC1 (configuration not stated) | inconclusive [inhibitor, single point]
